Several values for one entry are separate records, joined by “and”; a condition that tells them apart may be missing. Identical values can stand only once. Inconclusive results, whose numbers are uncertain, are shown with a selection of clear calls. For some of these results: Potencies beside an inconclusive call are fits to weak or partial responses and may not hold up. Activity calls are given as the source filed them. Unless noted, the call rests on the fitted dose curve; in most records, active means well fitted curve in the direction sought with a large enough effect; inconclusive means small, poorly fitted or top-dose-only effect, or another doubt; inactive means no such curve, though single readings can be large; an effect the other way counts as inactive or inconclusive.
What was measured:
[1] = biological target: Cytochrome P450 2D6 (Homo sapiens) (UniProt P10635); assay: Cytochrome P450 family 2 subfamily D member 6 (CYP2D6) small molecule antagonists: luciferase biochemical (cell-free) qHTS assay (AID 1645840; active means well fitted curve in the direction sought with a large enough effect in the repeat runs; inconclusive means weak or mixed curves; inactive means no such curve, though single readings can be large; an effect the other way counts as inactive or inconclusive; further: nearly all actives have a fitted effect of over 55% in size; further: potency means the concentration at half of the fitted maximal effect)
Sequence of UniProt P10635 (P10635 whole entry, looked up): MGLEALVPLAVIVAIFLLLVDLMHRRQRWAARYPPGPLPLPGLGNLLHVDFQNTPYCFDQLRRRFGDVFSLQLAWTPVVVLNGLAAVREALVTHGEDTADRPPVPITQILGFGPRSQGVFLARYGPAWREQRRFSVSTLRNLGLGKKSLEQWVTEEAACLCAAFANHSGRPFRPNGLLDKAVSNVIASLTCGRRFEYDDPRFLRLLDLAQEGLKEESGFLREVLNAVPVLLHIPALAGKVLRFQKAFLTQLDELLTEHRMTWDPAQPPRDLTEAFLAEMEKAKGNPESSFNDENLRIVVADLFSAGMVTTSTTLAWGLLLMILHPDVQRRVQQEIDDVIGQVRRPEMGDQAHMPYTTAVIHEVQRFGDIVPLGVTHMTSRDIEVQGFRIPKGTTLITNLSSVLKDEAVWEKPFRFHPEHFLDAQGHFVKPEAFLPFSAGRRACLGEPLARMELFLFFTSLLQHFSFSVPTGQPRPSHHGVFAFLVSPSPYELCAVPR
In short: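 P450-Glo CYP2D6 system: proluciferin substrate converted by enzyme to luciferin, read by luminescence proportional to activity. Enzyme-substrate mix with compound 10 min at room temperature, then NADPH regeneration 1 h before detection reagent.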

JEG-3 = assay: Primary qHTS to identify gynecologic anti-cancer compounds using libraries of approved drugs and bioactive compounds (AID 1345084); details: Gynecologic cancer cell panel viability, ATPlite luminescence, 48 h; series mostly up to 57.5 µM; further: nearly all actives have a fitted effect of over 55% in size; further: potency means the concentration at half of the fitted maximal effect
In short: (§1)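 Cells, 1,000 per well, were allowed to settle for 16 h at 37 C before compound addition. Five concentrations were tested for 48 h, and viability was read by ATPlite luminescence after 15 min at room temperature.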

[2] = Primary fluorescence-based thiol-reactive (MSTI) qHTS assay for identification of artifact compounds. (AID 1845221); further: potency means the concentration at half of the fitted maximal effect;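 further: thiol-reactive compounds lower the probe fluorescence signal; nearly all actives have a fitted effect of over 65% in size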
In short: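 qHTS titration of compound; 4 uM MSTI, PBS pH 7.4, 2% DMSO; 1 h RT, dark; fluorescence 525/598 nm; normalized to Acetyl-MSTI and MSTI; 4-parameter Hill fit.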

[3] = Primary redox qHTS assay for identification of artifact compounds. (AID 1845223)
In short: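 Redox-cycling detection via DTT (250 uM final) oxidation coupled to Amplex Red (25 uM)/HRP (250 mU/mL) in HBSS. 15 min preincubation plus 30 min after DTT, room temperature. Ex/Em 525/598 nm; 4-parameter Hill fit against DMSO and 10 uM DA3003.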

SKOV3 = assay: Primary qHTS to identify gynecologic anti-cancer compounds using libraries of approved drugs and bioactive compounds (AID 1345084); details: Gynecologic cancer cell panel viability, ATPlite luminescence, 48 h; series mostly up to 57.5 µM; further: nearly all actives have a fitted effect of over 55% in size; further: potency means the concentration at half of the fitted maximal effect
In short: as §1

[4] = qHTS of pediatric cancer cell lines to identify multiple opportunities for drug repurposing: Primary screen for SK-N-MC cells (AID 1347093); details: SK-N-MC viability, CellTiter-Glo luminescence, 48 h; activity change, negative = cytotoxic: at 46 µM (top of the series)
In short: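 Metabolically active cells were quantified by ATP-dependent luminescence (CellTiter-Glo, 15 min at room temperature) following 48 h treatment. Cells had been plated at 500-1,000 per well and settled for 5 h beforehand.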

[5] = qHTS of pediatric cancer cell lines to identify multiple opportunities for drug repurposing: Primary screen for MG 63 (6-TG R) cells (AID 1347105); details: MG 63 (6-TG R) viability, CellTiter-Glo, 48 h; activity change, negative = cytotoxic: at 46 µM (top of the series); further: nearly all actives have a fitted effect of over 50% in size
In short: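 Following a 5-hour attachment period, cells at 500-1,000/well received compounds and were cultured for 48 hours. CellTiter-Glo was added and luminescence read to estimate viable, metabolically active cells.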

[6] = Primary qHTS for small molecule stabilizers of the endoplasmic reticulum resident proteome: Secreted ER Calcium Modulated Protein (SERCaMP) assay (AID 1508630); details: SH-SY5Y GLuc-SERCaMP (Gaussia luciferase released on ER calcium loss) secretion, thapsigargin, luminescence; series mostly up to 38.4 µM; further: potency means the concentration at half of the fitted maximal effect
In short: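 The SH-SY5Y reporter protocol was run at 3 concentrations up to 38.3 uM (primary) or 11 concentrations (follow-up): 16 h compound, 100 nM thapsigargin for 4 h, then extracellular luciferase luminescence.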

Tov-21-G = assay: Primary qHTS to identify gynecologic anti-cancer compounds using libraries of approved drugs and bioactive compounds (AID 1345084); details: Gynecologic cancer cell panel viability, ATPlite luminescence, 48 h; series mostly up to 57.5 µM; further: nearly all actives have a fitted effect of over 55% in size; further: potency means the concentration at half of the fitted maximal effect
In short: as §1

[7] = S16 Schwann cell PMP22 intronic element firefly luciferase assay (AID 624032); further: nearly all actives have a fitted effect of over 30% in size
In short: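 Luciferase reporter of PMP22 intronic-element expression in stably transfected S16 rat Schwann cells, read by ONE-Glo luminescence after 24 h compound exposure at 37 C. Activity scaled between DMSO (0%) and positive-control PTC124; concentration-effect curves quality-classified.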

[8] = P-glycoprotein substrates identified in KB-8-5-11 adenocarcinoma cell line, qHTS therapeutic library screen (AID 1346987); details: activity change, negative = cytotoxicity: at 44.5 µM (top of the series); further: nearly all actives have a fitted effect of over 65% in size
In short: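 Compounds are pinned in dose-response onto KB-8-5-11 cells (500 cells/well, colchicine-free medium) and left 72 h at 37 degree C. CellTiter-Glo luminescence then yields AC50 values.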

[9] = test system: Nanoluciferase (engineered Oplophorus gracilirostris luciferase); assay: Primary Nanoluciferase (NLuc) qHTS assay for identification of artifact compounds. (AID 1845222)
In short: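 Compounds are pinned into diluted (1:55) conditioned medium of NLuc-expressing S16 cells and held 15 min at room temperature protected from light. Nano-Glo substrate follows, and luminescence is read 5 min later.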

OV90 = assay: Primary qHTS to identify gynecologic anti-cancer compounds using libraries of approved drugs and bioactive compounds (AID 1345084); details: Gynecologic cancer cell panel viability, ATPlite luminescence, 48 h; series mostly up to 57.5 µM; further: nearly all actives have a fitted effect of over 55% in size; further: potency means the concentration at half of the fitted maximal effect
In short: as §1

[10] = Drug repurposing screens with cells derived from glioblastoma tumor samples (AID 1345199); details: GBM patient neurospheres viability, ATP luminescence, 48 h; Potency: tumour line A unless noted; series mostly up to 46 µM; further: potency means the concentration at half of the fitted maximal effect; nearly all actives have a fitted effect of over 40% in size
In short: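 Primary testing used CD133+ neurospheres from four GBM patients, seven concentrations, 48 h exposure and ATP-based viability; confirmation added three slower-growing patient lines.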

[11] = qHTS profiling for inhibitors of Plasmodium falciparum proliferation (AID 504749); further: nearly all actives have a fitted effect of over 60% in size; further: potency means the concentration at half of the fitted maximal effect; details: P. falciparum in erythrocytes, SYBR Green DNA, 72 h; Potency: parasite line B unless noted; series mostly up to 28.7 µM
In short: (§2)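 SYBR Green fluorescence of parasite DNA, read after lysis and overnight dark incubation, measured growth over 72 h in erythrocyte culture at 0.3% parasitemia and 2.5% hematocrit. Data normalised to DMSO and 0.29 uM artemisinin, with plate-drift correction.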

3D7 = assay: as above; details: P. falciparum in erythrocytes, SYBR Green DNA, 72 h; series mostly up to 28.7 µM
In short: as §2

CP247 = assay: as above; details: P. falciparum in erythrocytes, SYBR Green DNA, 72 h; series mostly up to 28.7 µM
In short: as §2

CP252 = assay: as above; details: P. falciparum in erythrocytes, SYBR Green DNA, 72 h; series mostly up to 28.7 µM
In short: as §2

CP256 = assay: as above; details: P. falciparum in erythrocytes, SYBR Green DNA, 72 h; series mostly up to 28.7 µM
In short: as §2

DIV14 = assay: as above; details: P. falciparum in erythrocytes, SYBR Green DNA, 72 h; series mostly up to 28.7 µM
In short: as §2

DIV30 = assay: as above; details: P. falciparum in erythrocytes, SYBR Green DNA, 72 h; series mostly up to 28.7 µM
In short: as §2

GB4 = assay: as above; details: P. falciparum in erythrocytes, SYBR Green DNA, 72 h; series mostly up to 28.7 µM
In short: as §2

ICS = assay: as above; details: P. falciparum in erythrocytes, SYBR Green DNA, 72 h; series mostly up to 28.7 µM
In short: as §2

[12] = biological target: Cytochrome P450 2C9 (Homo sapiens) (UniProt P11712); assay: Cytochrome P450 family 2 subfamily C member 9 (CYP2C9) small molecule antagonists: luciferase biochemical (cell-free) qHTS assay (AID 1645842; active means well fitted curve in the direction sought with a large enough effect in the repeat runs; inconclusive means weak or mixed curves; inactive means no such curve, though single readings can be large; an effect the other way counts as inactive or inconclusive; further: nearly all actives have a fitted effect of over 55% in size)
Sequence of UniProt P11712 (P11712 whole entry, looked up): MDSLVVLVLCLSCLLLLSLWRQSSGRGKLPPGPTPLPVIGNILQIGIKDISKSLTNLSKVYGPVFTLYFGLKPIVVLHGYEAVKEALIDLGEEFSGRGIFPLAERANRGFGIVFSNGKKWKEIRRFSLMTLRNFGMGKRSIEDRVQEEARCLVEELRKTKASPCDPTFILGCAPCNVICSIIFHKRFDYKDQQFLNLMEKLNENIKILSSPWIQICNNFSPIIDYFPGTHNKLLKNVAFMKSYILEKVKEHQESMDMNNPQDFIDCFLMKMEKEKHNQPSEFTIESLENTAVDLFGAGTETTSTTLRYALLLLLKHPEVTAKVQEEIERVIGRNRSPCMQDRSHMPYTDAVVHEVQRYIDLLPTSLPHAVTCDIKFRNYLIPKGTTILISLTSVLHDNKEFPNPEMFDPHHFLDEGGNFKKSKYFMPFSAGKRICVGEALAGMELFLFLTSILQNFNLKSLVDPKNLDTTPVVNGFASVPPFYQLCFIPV
In short: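 P450-Glo CYP2C9 system: proluciferin substrate with enzyme in mix containing 0.4% BSA, 10 min at room temperature, then NADPH regeneration solution added and incubated 1 h at 37C. Detection reagent stopped reaction; luminescence read after 20 min as RLU.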

[13] = Primary qHTS for inhibitors of nuclear receptor binding SET domain protein 2 (NSD2) in an isogenic RCH-ACV NSD2 p.E1099K mutant (9B) (AID 1645876); details: activity change, negative = viability loss: at 44.9 µM (top of the series) unless noted; further: nearly all actives have a fitted effect of over 70% in size
PA-1 = assay: Primary qHTS to identify gynecologic anti-cancer compounds using libraries of approved drugs and bioactive compounds (AID 1345084); details: Gynecologic cancer cell panel viability, ATPlite luminescence, 48 h; series mostly up to 57.5 µM; further: nearly all actives have a fitted effect of over 55% in size; further: potency means the concentration at half of the fitted maximal effect
In short: as §1

[14] = Primary qHTS for inhibitors of nuclear receptor binding SET domain protein 2 (NSD2) in an RCH-ACV wild type WT cells (2C) (AID 1645877); details: activity change, negative = cell killing: at 44.9 µM (top of the series) unless noted; further: nearly all actives have a fitted effect of over 70% in size
[15] = P-glycoprotein substrates identified in KB-3-1 adenocarcinoma cell line, qHTS therapeutic library screen (AID 1346986); further: nearly all actives have a fitted effect of over 60% in size
In short: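 Viability read by CellTiter-Glo after 72 h compound exposure in dose-response of KB-3-1 and KB-8-5-11 (P-gp-high) cells. Hits needed AC50 < 10 uM, >50% maximum response and curve class -1.1 to -2.4. Cherry-picks retested ± tariquidar, including pcDNA/MDR-19 HEK-293 pair.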

[16] = test system: Zika virus NS2B-NS3 protease (linked construct); assay: Primary screen NINDS Rhodamine qHTS for Zika virus inhibitors (AID 1347160); further: nearly all actives have a fitted effect of over 55% in size
In short: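 Enzyme (25 nM, linked NS2B-NS3) was preincubated 15 min with compound in 10 mM Tris-HCl pH 8.0, 0.01% Tween 20. Rhodamine110 substrate (1.5 microM) was then added and fluorescence read at start and after 15 min.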

Measured: Potency
Tags describe the fitted curve by direction and shape.

Nc1ncnc2c1ncn2[C@H]1O[C@@H](C(=O)N2CCN(CC(=O)Nc3cccc4c3CNC4=O)CC2)[C@H](O)[C@@H]1O
inactive: [1] | JEG-3

CNC(=O)COC(=O)NCCC1CCN(c2cccc(C)n2)CC1
inconclusive: [2] 42.3 µM [inhibitor, partial curve, poor fit]
inactive: [3] | JEG-3 | SKOV3

CN(C)CCN1CCN(c2cccc(Cl)c2)C1=O
inconclusive: [6] 35.5 µM [inhibitor, partial curve, poor fit]
inactive: [4] | [5] | JEG-3 | Tov-21-G
active: [1] 15.5 µM

CN1[C@@H]2CC[C@H]1CC(OC(=O)C(CO)c1ccccc1)C2 (stereo partly drawn)
inconclusive: [10] 35.5 µM [inhibitor, partial curve] and 20 µM [inhibitor, partial curve] | [11] 17.8 µM [inhibitor, single point] | CP256 = 17.8 µM [inhibitor, single point] | DIV30 = 2.13 µM [inhibitor, partial curve, poor fit]
inactive: [7] | [8] | [9] | JEG-3 | OV90 | SKOV3 | 3D7 | CP247 | CP252 | DIV14 | GB4 | ICS

CC1(C)CC(=O)N(CCCCN2CCN(c3ncccn3)CC2)C(=O)C1
inconclusive: PA-1 = 3.98 µM [rising, single point]
inactive: [12] | [13] | JEG-3

CC(C)CC(=O)O[C@@H]1OC=C(CO[C@@H]2O[C@H](CO)[C@@H](O)[C@H](O)[C@H]2O)[C@H]2[C@@H]3O[C@H]3[C@@](O)(CO)[C@@H]12
inactive: [14] | JEG-3 | PA-1

COc1c2c(c(C)c3c1C(=O)OC3)OC1(C)CC(O)C34OC(OC)(OC3(C)C)C(O)CC4(C)C1C2 (stereo not drawn)
inactive: [15] | [8] | [16] | [13] | [14] | [2] | JEG-3 | SKOV3

Source: PubChem BioAssay (NCATS)
